Paper PMC5787466, “Accelerated bottom-up drug design platform enables the discovery of novel stearoyl-CoA desaturase 1 inhibitors for cancer therapy” (Oncotarget, 2017)

Target: SCD1
Assay: not given
Conditions: known SCD1 inhibitor, value given in the entry name; read-out: Known IC50 (printed in entry name); cited from earlier work

Q: With `CNC(=O)c1nccnc1NCC(=O)N1CCC(Nc2ccccc2C(F)(F)F)CC1` [Abbott_10g_phenoxyl_100nM] as the compound, how does the IC50 read?
A: 100 nM

Q: Which IC50 does the source give for `CNC(=O)c1nccnc1NCC(=O)N1CCC(Oc2ccc(O)c(Br)c2)CC1` [Abbott_10b_phenoxyl_58nM] here?
A: 58 nM

Q: For `CNC(=O)c1nccnc1NCC(=O)N1CCC(Oc2cccc(F)c2F)CC1` [Abbott_10e_phenoxyl_470nM], which IC50 is on record?
A: 470 nM

Q: For `CNC(=O)c1cccc(NC(=O)N2CCC(Oc3ccccc3Cl)CC2)c1` [A939572 37 nM], which IC50 is on record?
A: 37 nM

Same assay, conditions: known value, no reference given; read-out: Known IC50; cited from earlier work

Q: Which IC50 does the source give for `CNC(=O)c1cccc(NC(=O)N2CCC(Oc3ccccc3Cl)CC2)c1` [A939572, reference compound] here?
A: 37 nM

Q: For `Cc1nc2ccc(NCc3cccc(C(F)(F)F)c3)cc2n(CCNC(=O)CO)c1=O` [CVT-12-012 36nM, reference compound], which IC50 is on record?
A: 36 nM

Same assay, conditions: published IC50 of known SCD1 inhibitors used as QSAR controls; unit printed only in the ligand names; ref as named in Ligand Name (Uto et al bmcl2009, Uto_EJMC2011, powell_bmcl2011, Xin_bmcl2008); read-out: Known IC50; cited from earlier work

Q: Which IC50 does the source give for `O=C(NCCC1CC1)c1ccc(N2CCN(C(=O)c3cc(F)ccc3C(F)(F)F)CC2)nn1` [Xenon_LCF369 120 nM] here?
A: 120 nM

Q: Which IC50 does the source give for `CNC(=O)c1cccc(NC(=O)N2CCC(Oc3ccccc3Cl)CC2)c1` [A939572, reference compound] here?
A: 37 nM

Q: Which IC50 does the source give for `Cc1nc2ccc(NCc3cccc(C(F)(F)F)c3)cc2n(CCNC(=O)CO)c1=O` [CV Therapeutics CVT-12-012] here?
A: 36 nM

Q: For `NC(=O)c1cnc(N2CCN(C(=O)c3ccccc3C(F)(F)F)CC2)s1` [MerckFrost MF-152, reference compound], which IC50 is on record?
A: 100 nM

Q: For `CNC(=O)c1nccnc1NCC(=O)N1CCC(Oc2ccc(O)cc2)CC1` [Abbott 10a phenoxyl 6uM], which IC50 is on record?
A: 6000 nM

Tested on: 4 ccRCC cell lines
Assay: High-throughput proliferative screen, single point
Conditions: 10μM; proliferative screen in ccRCC cell lines

Q: Which “Single Pt Act (10μM)” value does the source give for `O=C(c1ccccc1C(F)(F)F)N1CCC(S(=O)(=O)NCc2ccc(OCc3ccccc3)nc2)CC1` [TC03.47] here?
A: No

Q: With `CNC(=O)c1cc(S(=O)(=O)N2CCC(Oc3ccccc3Cl)CC2)c[nH]1` [SetA.68] as the compound, how does the “Single Pt Act (10μM)” value read?
A: Y (no rescue)

Q: Which “Single Pt Act (10μM)” value does the source give for `CNC(=O)c1ccc(OCC2CCN(C(=O)c3ccccc3C(F)(F)F)CC2)cc1` [SetB.69] here?
A: No

Q: Which “Single Pt Act (10μM)” value does the source give for `CNC(=O)c1ccc2c(c1)CCCN2C(=O)C1CCN(C(=O)c2ccccc2C(F)(F)F)CC1` [SetB.52] here?
A: No

Q: For `CNC(=O)c1cncc(OC2CCN(C(=O)c3ccccc3C(F)(F)F)CC2)c1` [SetB.70], which “Single Pt Act (10μM)” value is on record?
A: No
